Our source for the TGI and GI50 values is PubChem BioAssay (NCI).

Holding throughout (assay): growth of human tumour cells (NCI), 48 h
The subject of assay [1] is HOP-92 NSCLC.
Assay [2] concerns MALME-3M melanoma.
For assay [3], the system named is SN12C renal.
Assay [4] has as its system A498 renal.
Assay [5] relates to A549 NSCLC.
For assay [6], the system named is CAKI-1 renal.
The subject of assay [7] is CCRF-CEM leukemia.
Assay [8] deals with DLD-1 colon.
Assay [9] deals with EKVX NSCLC.
Assay [10] deals with HL-60(TB) leukemia.
The subject of assay [11] is HOP-62 NSCLC.
Assay [12] concerns IGROV1 ovarian.
Assay [13] relates to KM12 colon.
Assay [14] concerns LOX IMVI melanoma.
In assay [15] the test system is M14 melanoma.
The test system of assay [16] is M19-MEL melanoma.
The test system of assay [17] is NCI-H226 lung.
The subject of assay [18] is OVCAR-4 ovarian.
Assay [19] deals with OVCAR-8 ovarian.
Assay [20] deals with RPMI-8226 leukemia.
Assay [21] relates to RXF 393 renal.
The test system of assay [22] is SF-268 CNS.
Assay [23] relates to SF-295 CNS.
The subject of assay [24] is SK-MEL-2 melanoma.
Assay [25] relates to SK-OV-3 ovarian.
Assay [26] concerns SNB-75 CNS.
Assay [27] concerns SR leukemia.
For assay [28], the system named is SW-620 colon.
The subject of assay [29] is UACC-257 melanoma.
The test system of assay [30] is UACC-62 melanoma.
The subject of assay [31] is UO-31 renal.
In assay [32] the test system is COLO 205 colon.
Assay [33] relates to DU-145 prostate.
Assay [34] relates to HCT-116 colon.
The test system of assay [35] is HCT-15 colon.
Assay [36] has as its system NCI-H23 lung.
Assay [37] has as its system NCI/ADR-RES ovarian.
Assay [38] has as its system SF-539 CNS.
In assay [39] the test system is SK-MEL-5 melanoma.
The subject of assay [40] is U251 CNS.
The test system of assay [41] is ACHN renal.
Assay [42] relates to BT-549 breast.
Assay [43] relates to HS 578T breast.
Assay [44] deals with HT29 colon.
The subject of assay [45] is K-562 leukemia.
For assay [46], the system named is MCF7 breast.
For assay [47], the system named is MDA-MB-435.
The subject of assay [48] is NCI-H460 lung.
The test system of assay [49] is OVCAR-5 ovarian.
Assay [50] concerns PC-3 prostate.
Assay [51] deals with SK-MEL-28 melanoma.
The subject of assay [52] is T-47D breast.

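96-well plates; 48 h exposure; 5 concentrations. Endpoints by linear interpolation between flanking doses. Not reached: highest tested concentration assigned. Abbreviation: GI50, concentration required for 50% inhibition of growth.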 Some entries of the source have several records that differ or are many. This is not the full list of results. An entry can have further records. For part of these data: Records of one sample usually come from different ranges of test concentrations, which the source does not state; some values may only mark the edge of a range. For part of these data: The values listed for one entry are repeats (runs, samples, wells, individuals or studies). Brackets tell where a record comes from. Letters count within one entry.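 TGI: total growth inhibition.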

As for `O=C1C=CN(C2OC(CO)C(O)C2O)C(=O)C1` (configuration not stated), the TGI was 194 µM [1 test] and 2.1 mM [mean of 6 tests] in assay [1]; 55 µM [1 test] and 1.72 mM [mean of 8 tests] in assay [2]; 119 µM and > 2.12 mM in [3].
For `CC[C@@H](C)[C@H]([C@H](CC(=O)N1CCC[C@@H]1[C@@H](OC)[C@H](C)C(=O)N[C@H](Cc1ccccc1)c1nccs1)OC)N(C)C(=O)[C@H](NC(=O)[C@@H](C(C)C)N(C)C)C(C)C`, the TGI was 1.51 nM and 214 nM in assay [4]; 4.25 µM [1 test] and > 100 µM [mean of 3 tests] in assay [5]; 117 nM [1 test] and 8.25 nM, 99.6 µM [mean of 4 tests] in assay [6]; 4.25 µM [1 test] and 2.59 nM, < 215 nM [mean of 3 tests] in [7]; 8.65 nM and 1.59 µM in assay [8]; 8.03 nM, 4.25 µM, > 100 µM in assay [9]. For the same compound, the TGI in assay [10] was 0.29 nM and 49.5 nM; in assay [11], 4.21 nM and > 82.2 µM; in assay [1], 8.37 nM, 4.25 µM, > 93.4 µM; in [12] it was 6.31 nM, 4.25 µM, > 100 µM; in assay [13], 0.404 nM and 4.25 µM; in assay [14], 4.25 µM [1 test] and > 85.1 µM [mean of 3 tests]. In addition, the TGI is 2.76 nM and 473 nM in [15]; 5.16 nM and 4.25 µM in assay [16]; 4.25 µM [1 test] and > 71.6 µM [mean of 4 tests] in assay [2]; 0.688 nM and 426 nM in assay [17]; 4.25 µM [1 test] and > 100 µM [mean of 4 tests] in assay [18]; 4.6 nM, 85.2 nM, 893 nM in assay [19]. The TGI in assay [20] was 4.25 µM [1 test] and > 100 µM [mean of 2 tests]; in assay [21], 3.72 nM and > 68.5 µM; in assay [22] it was 9.41 nM, 54.7 nM, > 76.9 µM; in [23] it was 1.1 nM and 627 nM; in assay [24], 2.94 nM and 5.93 µM; in assay [25] it was > 100 µM [mean of 2 tests] and 2.18 nM [mean of 4 tests]. The TGI is 2.65 nM, 655 nM, > 100 µM in assay [26]; 2.52 nM and > 4.64 µM in assay [27]; 4.25 µM [1 test] and > 100 µM [mean of 4 tests] in [28]; 4.25 µM [1 test] and > 100 µM [mean of 4 tests] in [29]; 4.25 µM [1 test] and > 62.5 µM [mean of 3 tests] in assay [30]; 9.36 nM and > 72.2 µM in [31]. Moreover, in assay [9], the GI50 was 0.425 nM [1 test] and 3.35 µM [mean of 4 tests].
For the compound `COc1ccc2[nH]c(-c3cccc(N(C)C)c3)cc(=O)c2c1`, the TGI was 464 nM and > 100 µM in [32]; 3.03 µM and > 100 µM in assay [33]; 4.43 µM and > 100 µM in assay [34]; 1.5 µM and 58.7 µM in [35]; 2.87 µM and > 100 µM in assay [1]; 9.65 µM and > 100 µM in assay [13]. Moreover, the TGI in [14] is 3.14 µM and > 100 µM; in assay [17], 885 nM and > 100 µM; in [36] it was 1.99 µM and > 100 µM; in assay [37], 486 nM and > 100 µM; in assay [23], 988 nM and 59.8 µM; in assay [38], 361 nM and 7.45 µM. The TGI in assay [24] is 6.82 µM and > 100 µM; in [39] it was 4.61 µM and > 100 µM; in assay [40], 2.31 µM and 24.6 µM.
As to `CC(C)c1cc(CNc2nc(Nc3cc(C4CC4)[nH]n3)cc(N3CCN(C)CC3)n2)on1`, the GI50 was 711 nM [sample A, 1 test] and 10.3 nM [sample B, mean of 2 tests] in assay [4]; 1.41 µM [sample A, 1 test] and 85.3 nM [sample B, mean of 2 tests] in assay [5]; 2.83 µM [sample A, 1 test] and 259 nM [sample B, mean of 2 tests] in assay [41]; 4 µM [sample A, 1 test] and 152 nM [sample B, mean of 2 tests] in [42]; 344 nM [sample A, 1 test] and 16.9 nM [sample B, mean of 2 tests] in assay [32]; 1.95 µM [sample A, 1 test] and 44 nM [sample B, 1 test] in [34]. Also, the GI50 in assay [35] is > 10 µM [sample A, 1 test] and 869 nM [sample B, mean of 2 tests]; in [11], 2.02 µM [sample A, 1 test] and 49.1 nM [sample B, mean of 2 tests]; in [43] it was 3.04 µM [sample A, 1 test] and 99.4 nM [sample B, mean of 2 tests]; in [44], 352 nM [sample A, 1 test] and 31.4 nM [sample B, 1 test]; in assay [45] it was 3.58 µM [sample A, 1 test] and < 16.6 nM [sample B, mean of 2 tests]; in assay [13], 2.76 µM [sample A, 1 test] and < 10 nM [sample B, 1 test]. The GI50 is 653 nM [sample A, 1 test] and 35.2 nM [sample B, mean of 2 tests] in [14]; 2.14 µM [sample A, 1 test] and 150 nM [sample B, mean of 2 tests] in [15]; 464 nM [sample A, 1 test] and < 10.5 nM [sample B, mean of 2 tests] in assay [46]; 4.49 µM [sample A, 1 test] and 425 nM [sample B, mean of 2 tests] in assay [47]; 2.91 µM [sample A, 1 test] and < 12.3 nM [sample B, mean of 2 tests] in assay [48]; 756 nM [sample A, 1 test] and 30.1 nM [sample B, mean of 2 tests] in assay [49]. The GI50 is 4.97 µM [sample A, 1 test] and 174 nM [sample B, mean of 2 tests] in assay [50]; 669 nM [sample A, 1 test] and 27.1 nM [sample B, 1 test] in assay [21]; 2.42 µM [sample A, 1 test] and < 50.1 nM [sample B, mean of 2 tests] in assay [23]; 2.2 µM [sample A, 1 test] and 114 nM [sample B, mean of 2 tests] in assay [38]; > 10 µM [sample A, 1 test] and 367 nM [sample B, mean of 2 tests] in [51]; 2.21 µM [sample A, 1 test] and 216 nM [sample B, mean of 2 tests] in assay [3]. Further, the GI50 in assay [26] was 1.35 µM [sample A, 1 test] and 38.2 nM [sample B, mean of 2 tests]; in assay [28] it was 2.27 µM [sample A, 1 test] and 28.7 nM [sample B, mean of 2 tests]; in assay [52], > 10 µM [sample A, 1 test] and 625 nM [sample B, mean of 2 tests]; in assay [29] it was 8.71 µM [sample A, 1 test] and 190 nM [sample B, mean of 2 tests]; in assay [30], 3.49 µM [sample A, 1 test] and 127 nM [sample B, mean of 2 tests]. The TGI in assay [4] is 2.63 µM [sample A, 1 test] and 122 nM [sample B, mean of 2 tests]; in assay [32] it was 1.8 µM [sample A, 1 test] and 87.8 nM [sample B, mean of 2 tests]; in assay [33], > 10 µM [sample A, 1 test] and 657 nM [sample B, mean of 2 tests]; in [11], > 10 µM [sample A, 1 test] and 509 nM [sample B, mean of 2 tests]; in assay [43] it was > 10 µM [sample A, 1 test] and 469 nM [sample B, mean of 2 tests]; in assay [44], > 10 µM [sample A, 1 test] and 244 nM [sample B, 1 test]. Besides, the TGI is 3.43 µM [sample A, 1 test] and 200 nM [sample B, mean of 2 tests] in [14]; 4.36 µM [sample A, 1 test] and 198 nM [sample B, 1 test] in [21]; 5.44 µM [sample A, 1 test] and 245 nM [sample B, mean of 2 tests] in assay [26].
